According to PubChem BioAssay AID1645887 (National Center for Advancing Translational Sciences (NCATS), 2021):
Several values for one entry are separate records, joined by “and”; a condition that tells them apart may be missing. Identical values can stand only once. The campaign covered roughly 16,000 compounds. About 40 (0.2%) were called active. Not shown: some 1% with an inconclusive outcome. The call rests on the fitted dose curve; in most records, active means well fitted activation curve with a large enough effect; inconclusive means small, poorly fitted or top-dose-only effect, or another doubt; inactive means no such curve, though single readings can be large or run the other way. This is one part of the list.

What follows are compounds tested against Rap guanine nucleotide exchange factor 4 (Homo sapiens) (UniProt Q8WZA2) (assay: Validation qHTS for agonist of cAMP-regulated guanine nucleotide exchange factor 4 (EPAC2)). Settings: EPAC2 Rap1B BODIPY-GDP exchange, fluorescence; activation: stronger effect = higher value.
Sequence of UniProt Q8WZA2 (Q8WZA2 whole entry, looked up): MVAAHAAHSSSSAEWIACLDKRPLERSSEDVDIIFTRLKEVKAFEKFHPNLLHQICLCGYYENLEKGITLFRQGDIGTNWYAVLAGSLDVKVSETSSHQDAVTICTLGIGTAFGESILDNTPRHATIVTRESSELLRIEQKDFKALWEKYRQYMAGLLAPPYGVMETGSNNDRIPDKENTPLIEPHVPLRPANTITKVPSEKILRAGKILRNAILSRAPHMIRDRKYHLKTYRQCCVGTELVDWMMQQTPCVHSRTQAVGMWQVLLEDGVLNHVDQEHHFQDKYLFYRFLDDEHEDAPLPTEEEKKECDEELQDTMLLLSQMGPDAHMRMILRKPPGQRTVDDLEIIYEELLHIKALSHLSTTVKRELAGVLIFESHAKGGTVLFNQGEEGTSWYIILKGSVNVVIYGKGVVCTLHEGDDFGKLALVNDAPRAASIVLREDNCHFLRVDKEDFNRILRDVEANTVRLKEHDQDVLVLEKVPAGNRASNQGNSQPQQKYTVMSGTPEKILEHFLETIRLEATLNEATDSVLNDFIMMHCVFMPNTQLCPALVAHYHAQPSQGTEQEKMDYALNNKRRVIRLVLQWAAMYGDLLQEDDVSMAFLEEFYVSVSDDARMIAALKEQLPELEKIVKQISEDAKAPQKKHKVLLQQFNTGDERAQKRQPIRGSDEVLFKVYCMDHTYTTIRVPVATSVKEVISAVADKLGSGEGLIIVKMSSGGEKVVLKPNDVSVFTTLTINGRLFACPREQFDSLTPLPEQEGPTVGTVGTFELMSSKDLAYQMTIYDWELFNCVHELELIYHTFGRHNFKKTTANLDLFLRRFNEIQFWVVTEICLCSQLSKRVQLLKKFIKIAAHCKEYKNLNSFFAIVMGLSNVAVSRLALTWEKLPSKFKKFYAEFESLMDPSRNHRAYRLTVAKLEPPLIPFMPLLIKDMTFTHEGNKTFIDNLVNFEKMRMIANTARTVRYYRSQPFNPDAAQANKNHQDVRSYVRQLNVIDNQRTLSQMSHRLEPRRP
Procedure, shortened: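 Fluorescent exchange assay: 100 nM EPAC2 with 250 nM RAP1B-BODIPY-GDP and 50 uM GDP; compound added, 5 min at room temperature, then read (ex 480/em 540 nm) every 5 min for 30 min. Normalized to 6.5 mM cAMP agonist control.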
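Further: exchange makes BODIPY-GDP fluorescence drop when released from Rap1B; series mostly up to about 150 µM.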
On the % scale 0 is the no-effect control and ±100 the full control effect.

activation, inactive:
CCN(CC)CCOc1ccc(Cc2ccccc2)cc1 -22.7% and -6.07%, O=c1cc(-c2ccccc2)oc2cc(O)c(O)cc12 -10.7%, CCCCCCCCN1[C@@H](CC(=O)O)c2ccc(C(F)(F)F)cc2S1(=O)=O -38%, CS(=O)(=O)N1CCC2(CCCN(Cc3cc(C(F)(F)F)cc(C(F)(F)F)c3)C2)CC1 -1.72%, O=S(=O)(NCc1ccc(F)cc1)c1cc(Br)ccc1Br -6.36%, CC1OCC23CC[C@@]4(C)CCC(C)(C)C[C@H]4[C@]2(C)CCC12C3CC[C@@]1(C)C2C(=O)CC(=O)[C@@H]1C (some centres undefined) -9.13%, O=c1c(O)c(-c2cc(O)c(O)c(O)c2)oc2cc(O)cc(O)c12 1.49% and -48.5% and -38.3%, CC(C)c1ccc(C(=O)C[N+]2(C)CCOCC2)cc1 -18.4%, N#CC(C#N)=C(N)/C(C#N)=C/c1ccc(O)cc1 -20%, COc1cccc(Nc2ncc3nc(C)c(=O)n(C)c3n2)c1 -3.31%, CCn1cc(C(=O)O)c(=O)c2cnc(N3CCNCC3)nc21 -6.31% and 6.76%, CCCCS(=O)(=O)N[C@@H](Cc1ccc(OCCCCC2CCNCC2)cc1)C(=O)O -4.31%, CCc1nc(CN2CCOc3ccc(C(O)C4CCCCC4)cc3C2)c(C)[nH]1 (centres undefined) -13%, NCCS(=O)(=O)O -25.2% and -9.12% and -4.37%, CCN1CCCC1CNCc1cc2c(OC)c(OC)c(OC)cc2nc1N(C)C (centres undefined) -2.98%, C[C@@](N)(Cc1ccc(O)cc1)C(=O)O -20.2%, CCCC[C@@H](C=O)NC(=O)[C@H](CC(C)C)NC(=O)OCc1ccccc1 -14.7%, O=C(NCc1nnc2n1CCN(Cc1cc(F)cc(F)c1)CC2)c1cccc(F)c1 -0.177%, CN(C)Cc1ccccc1-c1cc(Nc2ccccc2)ncn1 -10.1%, OCCCc1ccccc1 2.65%, CO/N=C(/C(=O)N[C@@H]1C(=O)N2C(C(=O)OCOC(=O)C(C)(C)C)=C(C)CS[C@H]12)c1csc(N)n1 -8.29%, Cc1noc(C)c1-c1cc(NCc2cccnc2)ncn1 -10.8%, COc1nc(C)nc(Cl)c1NC1=NCCN1 -7.69% and -16.5%, Cc1cnc(CNc2ncncc2-c2ccccc2C#N)cn1 -12%
